Among all 220,000 compounds or so, about 16,000 (7.3%) were called active. The shares of active, inactive and inconclusive entries below differ from those in the screen. Calls follow the shape of the dose curve; as a rule, active = well fitted inhibition curve with a large enough effect (not every such curve was filed as active); inconclusive = small, poorly fitted or top-dose-only effect, or another doubt; inactive = no such curve, though single readings can be large or run the other way. Potencies of inconclusive entries are left out as doubtful fits.
What follows are compounds tested against Aldehyde dehydrogenase 1A1 (Homo sapiens) (UniProt P00352) (assay: qHTS Assay for Inhibitors of Aldehyde Dehydrogenase 1 (ALDH1A1)). Settings: Purified ALDH1A1, NADH fluorescence, propionaldehyde substrate; series mostly up to 75.3 µM; activity, negative = inhibition: at the top concentration.
Sequence of UniProt P00352 (P00352 whole entry, looked up): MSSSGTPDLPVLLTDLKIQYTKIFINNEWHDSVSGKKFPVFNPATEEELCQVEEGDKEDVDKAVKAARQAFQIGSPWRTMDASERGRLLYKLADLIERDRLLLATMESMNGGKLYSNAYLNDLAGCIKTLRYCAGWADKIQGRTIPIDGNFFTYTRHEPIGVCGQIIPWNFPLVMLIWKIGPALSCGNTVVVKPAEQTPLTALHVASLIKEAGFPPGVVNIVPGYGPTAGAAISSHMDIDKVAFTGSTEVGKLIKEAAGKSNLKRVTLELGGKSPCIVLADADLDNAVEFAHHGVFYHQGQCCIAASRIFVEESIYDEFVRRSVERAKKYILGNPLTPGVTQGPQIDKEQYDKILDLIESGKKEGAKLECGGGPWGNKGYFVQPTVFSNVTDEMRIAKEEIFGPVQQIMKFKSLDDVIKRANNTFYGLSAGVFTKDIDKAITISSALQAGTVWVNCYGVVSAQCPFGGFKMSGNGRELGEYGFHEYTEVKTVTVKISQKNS

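For activity, negative = inhibition in this document: plate controls were no enzyme wells and a reference inhibitor.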
Potency is read from the fitted curve at half-maximal effect; tags tell the direction and shape of the fitted curve.

SMILES	Potency	activity, negative = inhibition
CC1=CC(C)(C)n2c(O)c(C3=NC(=S)NC3=O)c3cc(OC(=O)c4cccc5ccccc45)cc1c32	inconclusive [inhibitor, single point]	
Oc1cccc(C(O)CNCc2ccc(OCc3ccc(Cl)cc3Cl)cc2)c1 (centres undefined)		inactive: 5.21%
CCCCCCNS(=O)(=O)c1ccc(NC(=O)C2CCCO2)cc1 (centres undefined)		inactive: 0.932%
CC(C)c1[nH]nc2c1C1(CCN(Cc3ccccc3)CC1)C(C#N)=C(N)O2	inconclusive [inhibitor, single point]	
COC(=O)c1sc(NC(=O)c2c(F)cccc2F)c(C#N)c1C		inactive: -0.627%
O=C(Nc1ccccc1Cc1ccccc1)c1ccc2c(c1)SC1=NS(=O)(=O)CCN12	active: 7.94 µM	
O=c1oc2ccc3ccccc3c2c2c1SC(C(F)(F)F)C2 (centres undefined)	inconclusive [inhibitor, partial curve]	
CCn1nnnc1SCC(=O)c1ccc(NC(C)=O)cc1	inconclusive [inhibitor, single point]	
COc1ccc(C(=O)CSc2nnc(CNC(=O)c3ccc(OC)c(OC)c3)n2C)cc1	inconclusive [inhibitor, single point]	
CCOc1c(OC)ccc2c3c(c(=O)oc12)CCCC3	inconclusive [inhibitor, partial curve]	
O=C(CN1CCN(S(=O)(=O)c2ccc(F)cc2)CC1)c1ccc(O)c(O)c1	inconclusive [inhibitor, single point]	
O=C(O)CCc1nn2cc(-c3ccccc3)nc2[nH]c1=O	inconclusive [inhibitor, partial curve]	
Cc1cccc(S(=O)(=O)N2CCC(CO)(Cc3ccccc3)CC2)c1	active: 20 µM	
O=C1c2ccccc2C(=O)N1CCCCN(C(=O)c1cc2ccccc2oc1=O)c1ccc(F)cc1F	inconclusive [inhibitor, full curve]	
Cc1ccc(-n2cc3c(=O)n(C)c(=O)n(C)c3c2)cc1C	active: 14.1 µM	
O=C(Cc1c[nH]c2ccccc12)OCCOC(=O)Cc1c[nH]c2ccccc12	active: 17.8 µM	
NC(CCC(=O)NC(CCSC(CC(=O)O)C(=O)O)C(=O)NCC(=O)O)C(=O)O (centres undefined)		inactive: 5.35%
CCN(CC)C(=O)c1cc(-c2ccccc2OC)on1	active: 14.1 µM	
O=C(COC(=O)C12CC3CC(CC(C3)C1)C2)Nc1ncc(Cl)cc1Cl	inconclusive [inhibitor, single point]	
Cc1ccc(CNC(=O)CCNS(=O)(=O)c2ccc(C)cc2)cc1	active: 14.1 µM	
Cc1ccc(-c2nn3c(-c4ccco4)nnc3c3ccccc23)cc1S(=O)(=O)NCC1CCCO1 (centres undefined)	inconclusive [inhibitor, partial curve]	
NC(=O)c1ccc(-n2nnnc2Oc2ccccc2)cc1		inactive: -1.48%
NC(=O)CSc1nc2scc(-c3ccco3)c2c(=O)n1-c1ccccc1	active: 3.55 µM	
O=C(OCC(=O)N1CCOCC1)c1ccc(N2CCOCC2)c([N+](=O)[O-])c1	inconclusive [inhibitor, single point]	
CCn1c(CNc2nc(-c3ccccc3)cs2)nnc1SCC(=O)NCc1ccco1	active: 28.2 µM	

SMILES	Potency	activity, negative = inhibition
CCCCC1=C(C(=O)OCC)C(C(=O)OCC)Oc2ccccc21 (centres undefined)		inactive: 8.75%
CCn1c(CNc2cccc(C(F)(F)F)c2)n[nH]c1=S		inactive: -2.42%
COc1cc(OC)cc(C(=O)NC(=S)N2CCN(c3ccc(C(F)(F)F)cc3[N+](=O)[O-])CC2)c1		inactive: 2.52%
CCOC(=O)c1ccc(NC(=S)Nc2cccc(N)n2)cc1	inconclusive [inhibitor, single point]	
COc1ccc(-c2nc(CS(=O)CC(=O)NCc3cccnc3)c(C)o2)cc1OC (centres undefined)	inconclusive [inhibitor, partial curve]	
COc1ccc(/C=N/N=C2/C(=O)Nc3ccccc32)cc1O		inactive: -10.8%
O=c1c(O)c(-c2ccc(O)cc2)oc2cc(O)ccc12	inconclusive [inhibitor, partial curve]	
CCOC(=O)c1cc2c(=O)n3ccccc3nc2n(CCOC)c1=NC(=O)c1c(-c2c(F)cccc2Cl)noc1C	inconclusive [inhibitor, partial curve]	
CCCCOc1ccc(NC(=S)Nc2cc(C)nc(SCCCC)n2)cc1		inactive: 1.04%
COc1ccc(S(=O)(=O)N2CCCCC2)cc1NC(=O)C1CCCO1 (centres undefined)	inconclusive [inhibitor, partial curve]	
Cc1ccc(C2C(C#N)=C(N)SC(N)=C2C#N)c(C)c1	inconclusive [inhibitor, partial curve]	
O=c1c(-c2cc(F)cc(F)c2)nc2cncnc2n1-c1ccccc1		inactive: 12.6%
Brc1ccc(C2Nc3cccc4cccc(c34)N2)o1	active: 4.47 µM	
CCn1c(CSCc2ccc(Cl)cc2)n[nH]c1=S	inconclusive [inhibitor, partial curve]	
O=C(CN1CCCC1)N1CCCc2c1c(=O)oc1ccc(OCc3ccccc3)cc21	inconclusive [inhibitor, partial curve]	
Oc1ccc(/C=N/Nc2ccc(C(F)(F)F)cn2)cc1O	inconclusive [inhibitor, single point]	
Cc1ccccc1-n1nnnc1SCC(=O)N(C)C1CCS(=O)(=O)C1 (centres undefined)	active: 11.2 µM	
Cc1nc2ccccc2cc1C(=O)N/N=C/c1ccccc1[N+](=O)[O-]		inactive: 1.03%
Cc1cccc(NC(=O)c2onc3c2CCCC3)c1C		inactive: -7.94%
CC(C)C1S/C(=N/N=C/c2cccs2)NC1=O (centres undefined)	inconclusive [inhibitor, partial curve]	
CC(C)C(=O)N(Cc1cc(=O)[nH]c2ccccc12)c1ccccc1	inconclusive [inhibitor, partial curve]	
Cc1cccc(-n2nc3c(c2NC(=O)c2ccc(Br)o2)CSC3)c1		inactive: -13.4%
CC(C)c1c(O)ccc2c1CCC1[C@@](C)(C=O)CCC[C@@]21C (some centres undefined)		inactive: -0.754%
Cc1c(C(=O)NCCC2=CCCCC2)oc2ccc(S(=O)(=O)N3CCOCC3)cc12	inconclusive [inhibitor, single point]	

— PubChem BioAssay AID1030 (National Center for Advancing Translational Sciences (NCATS), 2008)
